Measured values: the antibiotic and cytotoxicity screens of Wong et al. (2023)
Some of the results follow.

Experiments:
HSkMC = human skeletal muscle cells; assay: cytotoxicity call (relative viability < 0.9); details: 10 µM
HepG2 = assay: cytotoxicity call (relative viability < 0.9); details: 10 µM
S. aureus RN4220 = assay: growth inhibition call (relative growth <= 0.2); details: 50 µM

Compound | cytotoxicity call (HSkMC) | cytotoxicity call (HepG2) | growth inhibition call (S. aureus RN4220)
COc1ccc(C#Cc2cnc3c(c2)C(=O)N([C@H](C)CO)C[C@H](C)[C@H](CN(C)S(=O)(=O)c2cccc(F)c2)O3)cc1OC | inactive | inactive | inactive
Cc1noc(C)c1NC(=O)N(C)C[C@@H]1Oc2ncc(C#CCN(C)C)cc2C(=O)N([C@H](C)CO)C[C@H]1C | inactive | inactive | inactive
C[C@@H]1CN([C@H](C)CO)S(=O)(=O)c2ccc(C#CC(C)(C)O)cc2O[C@H]1CN(C)Cc1ccncc1 | inactive | inactive | inactive
C=CC[C@@H](CC(=O)N[C@@H](CO)Cc1ccccc1)C(=O)N[C@H](C)COC(=O)[C@@H](CC=C)CC(=O)OC(C)(C)C | inactive | inactive | inactive
C[C@@H]1CN([C@H](C)CO)C(=O)Cc2cc(NC(=O)Cn3cnnn3)ccc2O[C@H]1CN(C)Cc1ccc(Oc2ccccc2)cc1 | inactive | inactive | inactive
C[C@@H]1CN([C@@H](C)CO)C(=O)c2cc(NS(=O)(=O)c3ccccc3)ccc2O[C@@H]1CN(C)S(=O)(=O)c1ccc(F)cc1 | inactive | inactive | inactive
C=C1CCC(=O)C(C)CCC2C1CC2(C)C (stereo unspecified) | inactive | inactive | inactive
C[C@H]1CN([C@@H](C)CO)C(=O)CCCn2cc(nn2)CO[C@H]1CN(C)S(=O)(=O)c1ccc(C#N)cc1 | inactive | inactive | inactive
C[C@H]1CCCCO[C@@H](CN(C)Cc2ccc(C(=O)O)cc2)[C@@H](C)CN([C@@H](C)CO)C(=O)c2cc(NS(=O)(=O)c3cccs3)ccc2O1 | inactive | inactive | inactive
COc1ccc(S(=O)(=O)N(C)C[C@H]2Oc3c(NC(=O)Nc4c(C)noc4C)cccc3C(=O)N([C@H](C)CO)C[C@@H]2C)cc1 | inactive | inactive | inactive
COC(=O)[C@H]1OC2(CCCC2)O[C@@H]1C(=O)OC | inactive | inactive | inactive
NC(=S)NCc1ccco1 | inactive | inactive | inactive
C[C@H](CO)N1C[C@H](C)[C@@H](CN(C)Cc2ccncc2)Oc2c(NC(=O)c3cnccn3)cccc2C1=O | inactive | inactive | inactive
CCS(=O)(=O)CCn1c([N+](=O)[O-])cnc1C | inactive | inactive | inactive
O=C(NO)c1cccc(C(=O)N/N=C/[C@H](O)[C@@H](O)[C@H](O[C@@H]2O[C@H](CO)[C@H](O)[C@H](O)[C@H]2O)[C@H](O)CO)c1 | inactive | inactive | inactive
CC(C)[C@H]1C(=O)N[C@@H](CCCNC(=N)N)C(=O)NCC(=O)N[C@@H](CC(=O)O)C(=O)N[C@H](Cc2ccccc2)C(=O)N1C | inactive | active | inactive
C=c1ccccc1=C1NN=C(SCC(=O)OC)O1 | inactive | inactive | inactive
NCCc1cc2nc(-c3ccncc3)ccn2n1 | inactive | inactive | inactive
Cc1noc(C)c1S(=O)(=O)Nc1ccc2c(c1)C(=O)N([C@H](C)CO)C[C@@H](C)[C@H](CN(C)Cc1ccncc1)O2 | inactive | inactive | inactive
CC(=O)n1cc([C@H]2C=C(C(=O)N3CCN(C)CC3)O[C@@H](OCc3ccc(CO)cc3)C2)c2ccccc21 | inactive | inactive | inactive
COc1cccc(c1)CN1CC[C@]2(CC1)CN([C@H](CO)c1c2c2ccc(cc2n1C)OC)C(=O)Nc1ccc(cc1)F | inactive | inactive | inactive
COc1ccc([Si](C)(C)[C@H]2[C@H](CCO)O[C@@]3(C(=O)N(Cc4cccc(N5C(=O)c6ccccc6Oc6ccccc65)c4)c4ccccc43)[C@@H]2C)cc1 | inactive | active | inactive
Cl.N#Cc1ccc2[nH]cc(CCCCN3CCN(c4ccc5oc(C(N)=O)cc5c4)CC3)c2c1 | inactive | active | inactive
CN(C)CCC=C1c2ccccc2Sc2ccc(Cl)cc21.Cl | inactive | active | inactive
C[C@H](CO)N1C[C@H](C)[C@@H](CN(C)S(C)(=O)=O)Oc2cc(C#Cc3ccc(F)cc3)ccc2S1(=O)=O | inactive | inactive | inactive
C[C@H](CO)N1C[C@H](C)[C@@H](CN(C)Cc2ccc(C(F)(F)F)cc2)OCCCC[C@H](C)Oc2ccc(NC(=O)Nc3ccc(F)cc3)cc2C1=O | inactive | inactive | inactive
Cc1ccc(S(=O)(=O)Nc2ccc3c(c2)C(=O)N([C@@H](C)CO)C[C@@H](C)[C@H](CN(C)S(=O)(=O)c2cn(C)cn2)O3)cc1 | inactive | inactive | inactive
